Screen size: about 360,000 compounds; about 16,000 (4.4%) were called active. The inconclusive results got no clear call from the source; some entries with a clear call stand among them for comparison. Calls follow the shape of the dose curve; as a rule, active = well fitted inhibition curve with a large enough effect; inconclusive = small, poorly fitted or top-dose-only effect; inactive = no such curve, though single readings can be large or run the other way. A potency beside an inconclusive call is a rough fit, not a confirmed value.
These compounds were tested against Bromodomain adjacent to zinc finger domain protein 2B (Homo sapiens) (UniProt Q9UIF8) (assay: qHTS Assay for Inhibitors of BAZ2B). Conditions: AlphaScreen BAZ2B-H3K14Ac peptide displacement; activity change, negative = inhibition: at 114 µM (top of the series).
Sequence of UniProt Q9UIF8 (Q9UIF8 whole entry, looked up, the tested form may be a part): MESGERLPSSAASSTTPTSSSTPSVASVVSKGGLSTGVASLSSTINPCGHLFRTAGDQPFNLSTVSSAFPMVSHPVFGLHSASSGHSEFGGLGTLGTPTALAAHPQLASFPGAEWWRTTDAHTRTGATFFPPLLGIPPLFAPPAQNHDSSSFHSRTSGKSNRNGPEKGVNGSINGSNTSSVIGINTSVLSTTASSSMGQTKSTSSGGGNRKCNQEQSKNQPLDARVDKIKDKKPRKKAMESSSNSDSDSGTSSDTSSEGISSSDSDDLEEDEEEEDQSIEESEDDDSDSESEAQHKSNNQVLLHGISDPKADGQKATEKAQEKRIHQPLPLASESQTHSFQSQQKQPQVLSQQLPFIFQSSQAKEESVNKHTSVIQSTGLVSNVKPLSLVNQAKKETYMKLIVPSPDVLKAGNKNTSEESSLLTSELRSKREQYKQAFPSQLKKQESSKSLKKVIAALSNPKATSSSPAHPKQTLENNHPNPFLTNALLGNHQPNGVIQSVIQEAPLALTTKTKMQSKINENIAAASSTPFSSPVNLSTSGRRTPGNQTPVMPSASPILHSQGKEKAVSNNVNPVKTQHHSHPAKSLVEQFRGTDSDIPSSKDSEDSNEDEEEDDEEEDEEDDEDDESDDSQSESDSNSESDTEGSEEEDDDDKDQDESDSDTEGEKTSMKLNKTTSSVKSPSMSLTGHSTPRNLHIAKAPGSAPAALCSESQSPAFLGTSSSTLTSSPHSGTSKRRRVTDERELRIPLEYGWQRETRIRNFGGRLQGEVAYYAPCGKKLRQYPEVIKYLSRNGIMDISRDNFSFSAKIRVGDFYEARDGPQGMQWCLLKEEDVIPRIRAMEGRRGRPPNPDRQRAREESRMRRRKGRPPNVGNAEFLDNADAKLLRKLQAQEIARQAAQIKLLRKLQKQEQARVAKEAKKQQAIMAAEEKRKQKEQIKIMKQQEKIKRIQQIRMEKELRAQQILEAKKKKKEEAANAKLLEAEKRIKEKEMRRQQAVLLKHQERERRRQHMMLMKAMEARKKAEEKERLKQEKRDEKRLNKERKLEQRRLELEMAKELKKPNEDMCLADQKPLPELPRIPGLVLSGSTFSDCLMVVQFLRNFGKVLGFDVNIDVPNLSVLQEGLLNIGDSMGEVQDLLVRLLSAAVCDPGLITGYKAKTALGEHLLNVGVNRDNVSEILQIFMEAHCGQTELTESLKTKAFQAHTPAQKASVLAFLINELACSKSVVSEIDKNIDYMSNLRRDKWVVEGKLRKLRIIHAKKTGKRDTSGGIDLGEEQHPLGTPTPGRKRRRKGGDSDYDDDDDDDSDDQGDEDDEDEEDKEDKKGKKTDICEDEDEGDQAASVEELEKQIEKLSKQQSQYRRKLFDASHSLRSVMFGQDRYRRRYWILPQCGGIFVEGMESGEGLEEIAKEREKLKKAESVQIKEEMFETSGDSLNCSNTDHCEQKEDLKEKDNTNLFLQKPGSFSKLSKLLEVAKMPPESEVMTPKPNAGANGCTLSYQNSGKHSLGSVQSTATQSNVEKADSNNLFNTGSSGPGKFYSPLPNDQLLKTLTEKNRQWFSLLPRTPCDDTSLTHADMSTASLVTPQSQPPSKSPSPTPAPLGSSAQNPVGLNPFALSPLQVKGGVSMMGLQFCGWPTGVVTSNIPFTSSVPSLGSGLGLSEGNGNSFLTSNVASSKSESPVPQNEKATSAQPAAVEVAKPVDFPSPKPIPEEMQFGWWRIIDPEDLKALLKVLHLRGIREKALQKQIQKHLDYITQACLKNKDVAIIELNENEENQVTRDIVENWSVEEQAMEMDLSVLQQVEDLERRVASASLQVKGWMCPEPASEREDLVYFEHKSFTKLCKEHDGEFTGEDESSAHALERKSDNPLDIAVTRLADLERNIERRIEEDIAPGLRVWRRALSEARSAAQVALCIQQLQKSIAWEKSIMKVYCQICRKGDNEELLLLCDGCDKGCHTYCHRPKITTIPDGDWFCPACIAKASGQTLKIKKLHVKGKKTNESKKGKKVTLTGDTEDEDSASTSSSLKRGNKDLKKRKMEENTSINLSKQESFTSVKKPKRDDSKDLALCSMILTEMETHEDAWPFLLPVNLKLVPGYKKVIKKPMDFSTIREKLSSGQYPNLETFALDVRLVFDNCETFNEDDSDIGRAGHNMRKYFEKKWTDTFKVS
How it was run: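 Complex of BAZ2B and biotin-H3K14Ac (50 nM apiece) forms over 30 min at RT, then faces library compounds up to 110 uM for another 30 min; AlphaScreen beads added, 20 min dark incubation, luminescence read.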
`O=c1c2ccccc2nc(N/N=C/c2c(O)ccc3ccccc23)n1O` was tested, and the Potency was active: 28.2 µM.
`c1cncc(N=c2scc(-c3cccc4ccccc34)n2CCCn2ccnc2)c1` was tested, and the Potency was active: 10 µM.
With `COc1ccc(O)c(C(=O)c2cc(SCC(=O)O)c3nc4sc5c(c4c(=O)n3c2)CCCC5)c1` the Potency was active: 22.4 µM.
For `O=C(/C=C/c1ccccc1)c1cc(Br)ccc(=O)c1O`, the Potency was active: 44.7 µM.
For `COc1ccc2[nH]c3c(c2c1)CCN(C(=O)CCC1CCCC1)C3c1ccc(F)cc1` (stereo not given), the Potency was inconclusive: 10 µM [inhibitor, full curve, poor fit].
In the case of `C#CCOCCOCCOCCNc1nc(N2CCN(C(=O)[C@H](CCCCN)n3cc(CCCC)nn3)CC2)nc(N2CCN(C(=O)[C@H](CCCCN)n3cc(CCC(=O)O)nn3)CC2)n1`, the Potency is reported as inconclusive: 89.1 µM [inhibitor, single point].
For `O=C(NNS(=O)(=O)c1ccccc1[N+](=O)[O-])c1cc2ccccc2cc1O`, the Potency was inconclusive: 79.4 µM [inhibitor, single point].
With `COc1ccc(CCNCc2csc3nc4ccccc4n23)cc1OC` the Potency was inconclusive: 89.1 µM [inhibitor, single point].
In the case of `CC(C)(C)c1ccc(S(=O)(=O)/N=C2\C=C(NS(=O)(=O)c3ccccc3)C(=O)c3ccccc32)cc1`, the Potency is reported as active: 28.2 µM.
For `Cc1ccc(NC(=O)CSc2ccc(-c3ccco3)nn2)cc1`, the Potency was “inactive”.
With `C=CCn1c(C)cc(C(=O)CSc2nnc(Cc3ccccc3)o2)c1C` the activity change, negative = inhibition was inconclusive: -40.9% [inhibitor].
For `Cc1ccc(C)c(NC(=O)CN2C(=O)CCc3cc(S(=O)(=O)N4CCCCC4)ccc32)c1`, the Potency was “inactive”.
`CCOC(=O)c1c(-c2ccc(C)cc2)csc1/N=C(\C)C1=C(O)c2ccccc2C1=O` was tested, and the Potency was inconclusive: 14.1 µM [inhibitor, full curve].
For `Cc1ccc(NS(=O)(=O)c2ccc3c(c2)oc(=O)n3C)cc1`, the Potency was “inactive”.
With `Cc1cc(N/N=C2/CCCc3ccccc32)nc2ccccc12` the Potency was inconclusive: 15.8 µM [inhibitor, partial curve].
For `O=C(Nc1ccccc1OC(F)F)c1cccc(S(=O)(=O)N2CCCC2)c1`, the Potency was inconclusive: 89.1 µM [inhibitor, single point].
With `CCc1ccc(/C=C2\SC(=S)N(CCCC(=O)Nc3ccc(C(=O)O)cc3)C2=O)cc1` the Potency was active: 35.5 µM.
`CCc1ccc(S(=O)(=O)Nc2cccc(-c3ccc(N4CCCCC4)nn3)c2)s1` was tested, and the Potency was inconclusive: 79.4 µM [inhibitor, single point].
`Cc1cccc(C(=O)Nc2cc3c(cc2C)n(C)c(=O)n3C)c1` was tested, and the Potency was inconclusive: 89.1 µM [inhibitor, single point].
For `CCOC(=O)C1CCCN(c2nc3ccccc3nc2NS(=O)(=O)c2ccc(C)cc2)C1` (stereo not given), the Potency was “inactive”.
With `COc1ccccc1NCC(=O)N/N=C/c1c(O)ccc2ccccc12` the Potency was “inactive”.
In the case of `COc1ccc(C2c3ccc(O)cc3Oc3ncn(Cc4ccco4)c(=N)c32)cc1` (stereo not given), the Potency is reported as inconclusive: 79.4 µM [inhibitor, single point].
For `Clc1ccc(OCCn2ccnc2)c2ccccc12`, the Potency was inconclusive: 31.6 µM [inhibitor, partial curve].
`Cc1n(CC(O)COCc2ccccc2)c2ccccc2[n+]1C` (stereo not given) was tested, and the Potency was active: 56.2 µM.
For `COc1ccc(CN2CCN(C(=O)CC(C)C)CC2)cc1`, the activity change, negative = inhibition was inconclusive: -62.8% [inhibitor].
For `Cc1nn(-c2ccccc2)c2[nH]c(=O)c(CNc3ccc(N4CCOCC4)cc3)cc12`, the Potency was active: 44.7 µM.
In the case of `O=C(COC(=O)/C=C/C(=O)N1CCN(c2ccccc2)CC1)NC(c1ccccc1)c1ccccc1`, the Potency is reported as active: 44.7 µM.
In the case of `OC(COCC1COc2ccccc2O1)CN1CCN(c2ccc(F)cc2)CC1` (stereo not given), the Potency is reported as inconclusive: 89.1 µM [inhibitor, single point].
`CCCCc1ccc(NC(=S)N2CCN(C(=O)c3ccco3)CC2)cc1` was tested, and the Potency was inconclusive: 70.8 µM [inhibitor, partial curve].
`COc1cccc(-n2c(CNc3ccc(F)cc3)nnc2SCC(N)=O)c1` was tested, and the Potency was “inactive”.
With `CCOC(=O)N1CCN(C(=O)CCCn2c(=S)[nH]c3ccsc3c2=O)CC1` the Potency was inconclusive: 79.4 µM [inhibitor, partial curve].
With `COc1cccc2cc(-c3nc(-c4ccccc4F)no3)c(=O)oc12` the Potency was “inactive”.
For `CCCN(CCC)C(=S)NC(=O)c1ccc(Cl)cc1Cl`, the Potency was inconclusive: 79.4 µM [inhibitor, single point].
With `CCCCN(C)CC(O)Cn1cc(/C=C/C(=O)c2ccc(Br)cc2)c2ccccc21` (stereo not given) the Potency was inconclusive: 31.6 µM [inhibitor, partial curve].
With `O=C(CN1CCOCC1)N1CCN(c2ccc3ccccc3n2)CC1` the Potency was inconclusive: 89.1 µM [inhibitor, single point].
With `CC(NC(=O)c1ccc([N+](=O)[O-])cc1Cl)C1CC2CCC1C2` (stereo not given) the Potency was inconclusive: 50.1 µM [inhibitor, partial curve].
`Cc1ccc(-c2cc(C(=O)Nc3nccs3)c3ccccc3n2)c(C)c1` was tested, and the Potency was “inactive”.
In the case of `Cc1ccc(-n2nc3c(=O)n(C(C)C(=O)NCc4ccc(OC(C)C)cc4)nc(C)c3c2C)cc1` (stereo not given), the Potency is reported as inconclusive: 89.1 µM [inhibitor, single point].
`CCOc1cc(C)ccc1OCc1nnc(SCC(=O)c2cccc([N+](=O)[O-])c2)n1CC` was tested, and the Potency was “inactive”.
With `CCOc1cc(/C=N\Nc2nc(Nc3ccccc3)nc(N3CCOCC3)n2)ccc1OC(=O)c1ccco1` the Potency was inconclusive: 79.4 µM [inhibitor, single point].
In the case of `O=C1CSC(c2ccccc2[N+](=O)[O-])N1CCc1ccccc1` (stereo not given), the Potency is reported as inconclusive: 50.1 µM [inhibitor, partial curve].
In the case of `COc1ccc(-c2noc(CSc3ccccc3)n2)cc1OC`, the Potency is reported as “inactive”.
For `CCOc1ccc2nc(NC(=O)c3nc(SCc4ccccc4F)ncc3Cl)sc2c1`, the Potency was “inactive”.
`Cc1ccc(Nc2nc(N3CCOCC3)nc(N3CCOCC3)n2)cc1C` was tested, and the Potency was inconclusive: 22.4 µM [inhibitor, single point].
With `O=C(O)c1ccc(CNCc2ccccc2Cl)cc1` the Potency was inconclusive: 89.1 µM [inhibitor, single point].
% is scaled to controls: 0 for no effect and ±100 for the full control effect; potency is read from the fitted curve at half-maximal effect; tags tell the direction and shape of the fitted curve.
Also: nearly all actives have a fitted effect of over 60% in size.
